Laboratory results as given in the supplement of paper PMC3334620.
In all, about 33,000 sequences were measured (“E-score (-0.5 to 0.5)”: median about -0.011, highest 2% from about 0.28 on). This is one part of the list.

Target: T1, Gcr1 (UniProt P07261)
T1 sequence: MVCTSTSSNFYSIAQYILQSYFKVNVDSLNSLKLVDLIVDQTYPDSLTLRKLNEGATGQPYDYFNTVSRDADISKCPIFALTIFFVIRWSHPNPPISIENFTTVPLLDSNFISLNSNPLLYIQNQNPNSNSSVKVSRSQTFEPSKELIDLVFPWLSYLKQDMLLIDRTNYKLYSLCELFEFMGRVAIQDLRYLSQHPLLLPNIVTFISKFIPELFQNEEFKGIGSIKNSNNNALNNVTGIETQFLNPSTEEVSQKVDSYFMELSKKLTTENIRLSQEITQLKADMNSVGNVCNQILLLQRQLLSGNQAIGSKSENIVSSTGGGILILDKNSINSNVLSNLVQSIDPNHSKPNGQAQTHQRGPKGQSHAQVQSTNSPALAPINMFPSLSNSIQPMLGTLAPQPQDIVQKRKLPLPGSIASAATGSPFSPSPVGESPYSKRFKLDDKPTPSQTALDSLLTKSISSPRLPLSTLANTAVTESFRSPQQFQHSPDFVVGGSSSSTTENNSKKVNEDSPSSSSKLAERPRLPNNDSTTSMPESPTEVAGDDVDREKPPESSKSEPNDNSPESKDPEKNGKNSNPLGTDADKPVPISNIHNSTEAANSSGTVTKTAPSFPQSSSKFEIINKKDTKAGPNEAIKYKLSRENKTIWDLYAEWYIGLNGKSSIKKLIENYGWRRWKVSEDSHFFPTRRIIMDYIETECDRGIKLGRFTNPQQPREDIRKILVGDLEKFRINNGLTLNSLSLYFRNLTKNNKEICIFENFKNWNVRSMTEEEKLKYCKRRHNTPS
Assay: PBM E-score (8-mer binding enrichment) (E-score (-0.5 to 0.5)); higher = stronger / more preferred TF binding; most listed sequences are background and not binding sites
Details: protein concentration: 100 nM; construct: GST-full length
Outline: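 Universal all-10-mer Agilent arrays, double-stranded by primer extension on fresh or once-stripped slides, were probed with about 100-200 nM GST-tagged yeast transcription factors made by PURExpress. Fluorescent anti-GST detected bound protein, and masliner normalised the scans. E-scores from the Universal PBM Analysis Suite were given to each ungapped eight-base word pooled with its reverse complement.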

| Sequence | PBM E-score |
| --- | --- |
| CGTCCCTA | 0.0186 |
| CTGGCTGC | 0.35 |
| CATGATAC | 0.0457 |
| CGAGATTC | 0.208 |
| CCAAGTAG | 0.0382 |
| CCTGGTCG | -0.127 |
| ATTTTTTC | 0.0794 |
| ATATACTG | -0.023 |
| AGGCAAGC | -0.259 |
| GCTAGATA | 0.19 |
| ACTAAAAG | 0.174 |
| GACACGCA | 0.19 |
| AAGTTACG | -0.0292 |
| GCAGAAAC | 0.0158 |
| AGATCGCG | -0.0936 |
| GAGAGCAC | 0.221 |
| GACAGTAC | -0.215 |
| CGAGAACC | 0.0913 |
| CCCCTAGG | -0.198 |
| CTAAGAGA | -0.129 |
| CCAGACTC | 0.00878 |
| GTATGGTA | 0.0596 |
| TATAGTCA | -0.0997 |
| AAGCTGAG | -0.124 |
| ATGTTATG | 0.0312 |

| Sequence | PBM E-score |
| --- | --- |
| ACCACAGT | 0.0769 |
| CGCAATGC | -0.0825 |
| TCAAAGGA | 0.0741 |
| GAGTGCAA | 0.0879 |
| AAGACGGC | -0.142 |
| CTTAGTTC | 0.015 |
| ACCGTTCT | -0.108 |
| GAATCTAC | 0.277 |
| CCACGAAC | 0.0539 |
| ACATGACG | 0.127 |
| CCAGGACG | 0.0878 |
| GCAGGTCC | -0.0471 |
| ATTGTAAC | 0.0272 |
| CAGGACCC | 0.24 |
| CGCAGTGA | 0.0378 |
| CACCACTA | 0.298 |
| GTAGATAC | 0.0637 |
| AATGAGGA | 0.215 |
| ACAGCATC | 0.21 |
| TACCCTGA | -0.0688 |
| ATATGTTA | -0.115 |
| CTGACGAC | 0.00911 |
| ATAGCGTA | 0.045 |
| CTTGCAAG | -0.102 |
| AAACGATA | -0.0702 |

| Sequence | PBM E-score |
| --- | --- |
| ATTTTAGG | 0.249 |
| CGTCCAAA | 0.33 |
| AACTTGTG | 0.0787 |
| AGAATCTA | 0.219 |
| ATGGGAAG | 0.169 |
| CACACCTC | -0.0485 |
| CCAATAGC | 0.158 |
| CTGGACAG | -0.14 |
| ATTAATTG | -0.0321 |
| ACGTTCCC | -0.0625 |
| AGCAAGAC | -0.0866 |
| ACTTGTCA | -0.061 |
| CACCGACA | -0.134 |
| AGAGTGAG | -0.0865 |
| AACGGGTA | 0.102 |
| CGGAGGAC | -0.195 |
| AAAAGTAG | 0.295 |
| ACATCCCG | -0.128 |
| AGACGCGA | 0.214 |
| CTTGCGTA | -0.00594 |
| AAACACAA | 0.0754 |
| AAGTACTG | -0.0656 |
| GTGCCCGA | 0.0418 |
| ACACGCCG | 0.199 |
| ATCTAGAG | -0.0517 |

| Sequence | PBM E-score |
| --- | --- |
| ATCTATGA | -0.0683 |
| AGGCCCCG | 0.0239 |
| CCTAGACA | -0.158 |
| CTCATAAA | -0.0685 |
| ATACCTGA | 0.157 |
| CGATTTGC | -0.0992 |
| CCTCGCGC | -0.19 |
| AGTGCAAT | -0.0732 |
| GGTCATGA | -0.122 |
| CGAAACTA | -0.125 |
| CGGTCCTC | -0.165 |
| CAGGTGAC | -0.0797 |
| CTCGTGTA | -0.0471 |
| GCGATCGC | -0.134 |
| GGAGGTAA | -0.0182 |
| ATGTGTAG | -0.213 |
| ACCTCATA | -0.111 |
| AGAGCTCA | 0.0332 |
| CCCCCCAG | -0.232 |
| AGCCGGTA | 0.145 |
| CGCTGTGA | -0.144 |
| ACAATGAA | -0.0304 |
| GGCTTGAC | -0.176 |
| CGTACTCA | -0.0226 |
| CCGGCGCA | -0.0778 |

| Sequence | PBM E-score |
| --- | --- |
| CAAGACAC | 0.0836 |
| TCAAGCGA | -0.0035 |
| CGCGACGC | -0.028 |
| ATTGGTCG | 0.0402 |
| GATTACAA | 0.00708 |
| GGGACAGA | -0.0845 |
| AATCGTTG | 0.00401 |
| CCGCAACC | 0.316 |
| AGAGGGAA | -0.176 |
| ACACATTC | -0.0795 |
| CACTGAGA | -0.0465 |
| AAATGAGA | 0.137 |
| AAGTCATG | 0.00488 |
| CGGCAGAG | -0.198 |
| AGTAAACT | -0.00763 |
| GCGGACGA | -0.0103 |
| ACCTGAAG | -0.0913 |
| AGCGCGTA | 0.0354 |
| AAATAGGT | 0.17 |
| CTACTAAG | 0.0321 |
| GTAGTCTA | -0.00503 |
| CGGTACTA | -0.0633 |
| TGCATACA | -0.205 |
| AGAGCATG | -0.0857 |
| AATGTTCT | -0.00075 |

| Sequence | PBM E-score |
| --- | --- |
| ATCCCGAA | 0.24 |
| TAAATTGA | 0.126 |
| AACCGGTC | 0.0843 |
| CTTGAAAA | 0.104 |
| AATTTCCC | 0.129 |
| AGACCGGA | -0.0589 |
| ATCCCCTA | -0.0165 |
| AGATCCGA | -0.0858 |
| ATTTCCGC | 0.0282 |
| CGAGAGCA | 0.12 |
| GTTACCTA | -0.0726 |
| CAGGCTAA | -0.164 |
| CGAAAACA | -0.0974 |
| CTGCCACA | -0.0567 |
| AAGCCTGT | 0.00817 |
| CGCCGCAC | 0.0199 |
| CGACTGTC | -0.252 |
| CGCAAATC | -0.121 |
| AGCACAAG | -0.0814 |
| ACGCTCAA | -0.153 |
| CGCGCCCG | 0.0381 |
| CTGGCCAG | -0.281 |
| AACTCTAA | 0.0992 |
| GGATGATA | 0.0314 |
| GCGAGCAA | -0.0825 |

| Sequence | PBM E-score |
| --- | --- |
| CTCTAAAC | 0.0413 |
| CCACTGAA | 0.13 |
| CATTAGCC | -0.269 |
| AGCCGACC | -0.136 |
| CTTTTAGC | -0.171 |
| TCACCAAA | 0.117 |
| ACGAGATG | 0.163 |
| GCTCTCTA | -0.354 |
| GCGTAAAA | 0.225 |
| ATGCGATG | 0.0651 |
| CGTTGAAA | 0.0725 |
| TATCCAGA | 0.0553 |
| CCGGGCCG | -0.0357 |
| AGGATAGC | -0.035 |
| TCAACTGA | -0.0959 |
| AAATGGTG | 0.258 |
| ACCGTCTG | -0.117 |
| ACACATGA | -0.0602 |
| ATAGCGTG | -0.197 |
| ATTGATTC | 0.113 |
| CACCTTAC | 0.0428 |
| TAGAAGGA | -0.205 |
